Assay results: PMC11782079 (2024)
Numbering of substitutions follows the chain as printed. Names and notes keep the numbering of the source.

Key:
[1] = target: T1, FaRel2-Y128F (catalytically impaired toxSAS toxin) (Coprobacillus sp. D7); test: ITC; first site (KD1)
[2] = target: T1, FaRel2-Y128F (catalytically impaired …); test: ITC; second site (KD2)
[3] = target: T1, FaRel2-Y128F (catalytically impaired …); test: ITC
[4] = target: T1, FaRel2-Y128F (catalytically impaired …); test: ITC; remark: listed apart in the source

B1: ATfaRel2-R47A (natural protein)
chain: GAMCYIIAKRFKKSGCVALKAKRGKELADFATDLQKKLGYDIQIVAITAPTAYGEYEPYKFVNSFEEFSIEASRL
- Kd [1]: 33 nM
- Kd [2]: 749 nM

B2: ATfaRel2 F59A (natural protein)
chain: B1 chain with A49R, F61A
- Kd [3]: 2100 nM

B3: ATfaRel2 Y54A (natural protein)
chain: B1 chain with A49R, Y56A
- Kd [4]: 8700 nM
